In PubChem BioAssay AID1645882 (National Center for Advancing Translational Sciences (NCATS), 2021):
Out of some 16,000 compounds screened, about 120 (0.75%) were called active. About 4% were inconclusive and are not listed. The call rests on the fitted dose curve; in most records, active means well fitted inhibition curve with a large enough effect; inconclusive means small, poorly fitted or top-dose-only effect; inactive means no such curve, though single readings can be large or run the other way. The list shows a part of the results. Where a SMILES comes first, the peptide text is derived from it. [ ]: non-standard residue; d: D form. pGlu = O=C1CC[C@@H](C(=O)O)N1; Thz = O=C(O)[C@@H]1CSCN1

molecular target: Rap guanine nucleotide exchange factor 3 (Homo sapiens) (UniProt O95398); assay: Validation qHTS for antagonist of cAMP-regulated guanine nucleotide exchange factor 3 (EPAC1); settings: EPAC1 Rap1B-BODIPY-GDP exchange, fluorescence; series mostly up to 150 µM; activity change, negative = inhibition: at the top concentration;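 further: plate controls were DMSO for no effect and ATA control for full effect; nearly all actives have a fitted effect of over 75% in size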
Outline: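 EPAC1 (100 nM) mixed with 250 nM RAP1B-BODIPY-GDP and 50 uM GDP; compounds in concentration series, 5 min at room temperature. Fluorescence (ex 480/em 540 nm) read every 5 min for 30 min; normalized to ATA control and DMSO.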

Sequence of UniProt O95398 (O95398 whole entry, looked up): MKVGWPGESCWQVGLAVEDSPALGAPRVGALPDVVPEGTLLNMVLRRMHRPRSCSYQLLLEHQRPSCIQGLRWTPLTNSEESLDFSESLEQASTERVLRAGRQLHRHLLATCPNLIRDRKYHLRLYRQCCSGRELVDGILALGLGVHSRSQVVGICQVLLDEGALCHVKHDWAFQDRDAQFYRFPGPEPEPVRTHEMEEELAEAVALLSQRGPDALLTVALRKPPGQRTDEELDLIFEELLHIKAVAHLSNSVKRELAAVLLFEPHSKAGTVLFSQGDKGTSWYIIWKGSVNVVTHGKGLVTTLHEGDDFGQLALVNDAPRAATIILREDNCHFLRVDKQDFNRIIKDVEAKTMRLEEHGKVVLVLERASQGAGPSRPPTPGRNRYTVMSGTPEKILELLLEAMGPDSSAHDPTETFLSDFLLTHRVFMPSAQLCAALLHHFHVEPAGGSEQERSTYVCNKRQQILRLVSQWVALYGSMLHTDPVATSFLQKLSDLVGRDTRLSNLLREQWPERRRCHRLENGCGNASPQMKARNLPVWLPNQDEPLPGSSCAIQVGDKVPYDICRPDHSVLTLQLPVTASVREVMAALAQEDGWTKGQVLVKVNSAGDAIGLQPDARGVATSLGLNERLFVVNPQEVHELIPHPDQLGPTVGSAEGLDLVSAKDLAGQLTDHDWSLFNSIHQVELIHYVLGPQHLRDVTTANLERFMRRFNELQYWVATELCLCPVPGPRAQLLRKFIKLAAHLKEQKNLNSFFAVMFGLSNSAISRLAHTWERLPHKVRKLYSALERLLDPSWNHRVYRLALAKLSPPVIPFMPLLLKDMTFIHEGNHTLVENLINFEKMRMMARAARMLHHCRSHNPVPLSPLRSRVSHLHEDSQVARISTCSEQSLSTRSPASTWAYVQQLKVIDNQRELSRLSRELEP

Activity change, negative = inhibition, inactive:
COc1cc2c(cc1OC)OC(C)(C)C=C2 -9.62%
CCC1C(=O)NCCN1Cc1ccc2c(c1)CN(Cc1ccc(F)c(OC)c1)CCO2 (configuration not stated) 9.55%
COCCn1c(=O)c(-c2ccc(OC)cc2)nc2cnc(N3CCN(C)CC3)nc21 3.47%
CO/N=C(/C(=O)NC1C(=O)N2C(C(=O)O)=C(COC(N)=O)CSC12)c1ccco1 (configuration not stated) 9.11%
CCCS(=O)(=O)NCc1c(C)ncc2c1CCN(C(=O)c1ccc(Cl)cc1)C2 3.01%
CC(C)c1ncc([N+](=O)[O-])n1C 18.5%
O=c1c(-c2cccs2)nc2cnc(Oc3ccccc3)nc2n1Cc1cccs1 10.5%
CCCCNC(=O)[C@@H]1CC=C[C@@H]2CCN(C3CC3)C(=O)[C@@H]21 -1.58%
COC(=O)c1ccccc1-c1cc(C)cc2c1OC(CNC(=O)C1CCCO1)C2 (configuration not stated) 0.196%
Cc1cnc(CNc2ccnc(-c3ccccc3C(F)(F)F)n2)cn1 3.63%
COC(=O)c1ccccc1-c1cc(C)cc2c1OC(CNC(=O)c1occc1C)C2 (configuration not stated) -21%
CN1CCN(c2ncc3nc(-c4cc(F)cc(F)c4)c(=O)n(Cc4cccs4)c3n2)CC1 10%
Cc1cnc(CNc2ncncc2-c2cccc(NS(C)(=O)=O)c2)cn1 13.3%
COc1cc(=O)n2c(c1C(=O)N(C)Cc1nonc1C)CCN(Cc1cc(C)ccc1C)CC2 12.3%
Cn1c(=O)c2c(ncn2CC2OCCO2)n(C)c1=O 6.77%
CS(=O)(=O)c1ccc(C(O)C(CO)NC(=O)C(Cl)Cl)cc1 (configuration not stated) 17.1%
COc1ccccc1CCNCc1cc2cccc(C)c2nc1-c1cccs1 4.04%
Cc1cnc(CNc2cc(-c3cccc(C#N)c3)ncn2)cn1 2.75%
COc1ccccc1CN1CC2(CCN(C(=O)c3cccc(F)c3)CC2)C1 13.4%
FC(F)(F)c1ccccc1-c1nc(N2CCOCC2)c2ccccc2n1 -18.9%
CCCCCCCC(=O)OCC(COC(=O)CCCCCCC)OC(=O)CCCCCCC 31.1%
Oc1cc2c(cc1O)C(c1ccccc1)CNCC2 (configuration not stated)
COc1ccc2[nH]cc(CCNc3nc(-c4ccccc4CN(C)C)nc4ccccc34)c2c1 30.8%
O=C(O)CC/C=C\CC[C@@H]1[C@@H](N2CCCCC2)[C@@H](O)C[C@@H]1OCc1ccc(-c2ccccc2)cc1 22.9%
CN(C)c1ncc2nc(-c3cc(F)cc(F)c3)c(=O)n(Cc3cccs3)c2n1 78.6%
Cc1noc(C)c1-c1cc(NC2CCNCC2)ncn1 11.8%
NC(C(=O)O)C(CC(=O)O)c1ccc(Cl)cc1 (configuration not stated) 8.7%
COc1ccccc1-c1cncnc1-n1ccnc1 15.2%
C[C@@]1(C2CCCC2)Cc2cc(OCC(=O)O)c(Cl)c(Cl)c2C1=O
CCNc1ncc2nc(-c3cn(C)c4ccccc34)c(=O)n(CCC#N)c2n1 1.88%
O=C(Nc1ccc(Cl)c(C(F)(F)F)c1)[C@@H]1CC=C[C@@H]2CCN(Cc3ccccc3)C(=O)[C@@H]21 -6.44%
CCC12C(=Nc3c(Cl)cccc31)C[C@@H]1CCN3C(=O)CCC[C@H]2[C@H]13 (some centres not stated) 4.64%
O=C(CNC(=O)c1cccnc1)c1ccc(F)cc1 19.5%
COc1cc(O)cc(O)c1 15.8%
N[C@H](C(=O)O)C(O)C(O)C(O)CO (some centres not stated) -8.35%
FC(F)(F)c1ccccc1-c1nc(NCCN2CCOCC2)c2ccccc2n1 -0.453%
COCC(=O)N1CCC2(CCCN(C(=O)Nc3ccc(OC)cc3)C2)CC1 20.1%
CC(=O)N(CC(O)CO)c1c(I)c(C(=O)NCC(O)CO)c(I)c(C(=O)NCC(O)CO)c1I (configuration not stated) 23.3%
COc1cc(=O)n2c(c1C(=O)N(C)Cc1ccsc1)CCN(Cc1c(C)nn(C)c1Cl)CC2 9.4%
COc1ccccc1CN1CCC2(CC1)CCN(C(=O)c1c(C)noc1C)CC2 16.6%
O=P(O)(O)OC[C@H]1O[C@](O)(COP(=O)(O)O)[C@@H](O)[C@@H]1O 5.96%
O=C(NCCCN1CCOCC1)c1cnn(-c2ncc3c(n2)-c2ccccc2CC3)c1C1CC1 21.3%
CC(C)(C)[C@H]1CCC(=O)N([C@H](CC#N)Cc2ccccc2)CC1 -2.77%
COc1ccccc1CN1CCC2(CCC(CNC(=O)c3ccccc3N(C)C)O2)CC1 (configuration not stated) 17.5%
O=C1CCN(Cc2ccccc2)CCN1[C@H](COc1ccccc1)c1ccccc1 -2.52%
COc1cccc(Cn2c(=O)c(-c3cccs3)nc3cnc(N(C)C)nc32)c1 21%
Cc1ccc(C(=O)N(Cc2cc3ccc(F)cc3nc2N2CCC(O)CC2)CC2CCCO2)cc1 (configuration not stated) 17.9%
COc1ncc2nc(CCc3ccccc3)c(=O)n(Cc3ccc(F)cc3)c2n1 -6.33%
COc1ccc(NC(=O)N2CC3(CCN(C(=O)c4cccc(F)c4)CC3)C2)cc1 12.9%
CN1CCN(c2ncncc2-c2cccnc2)CC1 -7.01%
COc1ccc(CNc2ncncc2-c2cccc(C#N)c2)c(OC)c1 -14.2%
COc1cc(-c2cnc3ccccc3c2)cc2c1OCCN(C(=O)Cn1nccc1C)C2 22.3%
COc1cc([C@@H]2c3cc4c(cc3C(O[C@@H]3O[C@@H]5CO[C@@H](C)O[C@H]5[C@H](O)[C@H]3O)C3COC(=O)[C@@H]32)OCO4)cc(OC)c1OP(=O)(O)O (some centres not stated)
CN1CCN(c2ncc3nc(-c4cn(C)c5ccccc45)c(=O)n(CCC#N)c3n2)CC1 50%
CN(C)CCOc1ccccc1Cc1ccccc1 (tested in a mixture with another compound) 16.1%
O=C(C[n+]1ccncc1)c1cccc([N+](=O)[O-])c1 27.9%
CN1CCC2(CC1)CCN(S(=O)(=O)c1ccccc1)CC2 16.4%
CCCC[C@H]1COCCS(=O)(=O)N1Cc1cccc(F)c1 -7.02%
CC(=O)N(CC(O)CO)c1c(I)c(C(=O)NCCO)c(I)c(C(=O)NCC(O)CO)c1I (configuration not stated) 25.5%
COc1ccc(-n2c(=O)c(-c3ccc(F)cc3)nc3cnc(N4CCOCC4)nc32)cc1 8.94%
CN1CCN(c2ccnc(-c3ccccc3C(F)(F)F)n2)CC1 19.2%
CN(C)c1ncc2nc(-c3ccc(F)cc3)c(=O)n(CCC#N)c2n1 13.9%
CN1CCN(CC(=O)N2c3ccccc3C(=O)Nc3cccnc32)CC1
CC(C)NC(=O)[C@@H]1C[C@@H](Sc2nc3ccccc3[nH]2)CN1C1Cc2ccccc2C1 -12.8%
N#CCCn1c(=O)c(-c2cc(F)cc(F)c2)nc2cnc(Nc3ccccc3)nc21 18.9%
Cn1cc[nH]c1=S
Cc1nc2ccc(C(=O)NCC3CCC4(CCN(Cc5cccnc5)CC4)O3)cc2nc1C (configuration not stated) 15.3%
Cc1nc2cnc(N(C)C)nc2n(Cc2ccc(F)cc2)c1=O 10.7%
O=C1[C@H](Cc2ccccc2)NCCCC[C@@H](c2ccc(Cl)cc2)N1Cc1ccc(Cl)cc1 -7.93%
NC(Cn1ccc(=O)c(O)c1)C(=O)O (configuration not stated) 8.31%
CNCCc1cnc(CCC(c2ccccc2)c2ccccc2)[nH]1 3.33% [at 75.8 µM]
CC[C@](N)(CCC(=O)O)C(=O)O
CC(=O)OC1CC(O)C(C)(C)C2CC(OC(C)=O)[C@]3(C)C(CC[C@@]4(C)C(c5ccoc5)OC(=O)C5OC534)[C@]12C (some centres not stated) 17.5%
CN1CCN(c2ncc3nc(-c4cc(F)cc(F)c4)c(=O)n(C)c3n2)CC1 22.6%
CS(=O)(=O)Nc1cccc(-c2nccc(NCc3ccccc3)n2)c1 7.97%
COC1=C(OC)C(=O)C(CC=C(C)CCC=C(C)CCC=C(C)CCC=C(C)CCC=C(C)CCC=C(C)CCC=C(C)CCC=C(C)CCC=C(C)CCC=C(C)C)=C(C)C1=O 29.8%
CC(C)NCC(O)COc1ccc(CC(N)=O)cc1 (configuration not stated)
COCc1ccc(C(=O)N2CCOc3c(cc(-c4cc(C)c5cccc(OC)c5n4)cc3OC)C2)o1 3.58%
COc1cccc(Cn2c(=O)c(-c3cccs3)nc3cnc(N4CCOCC4)nc32)c1 -1.5%
CC(C)C[C@H](NC(=O)[C@@H](COC(C)(C)C)NC(=O)[C@H](Cc1ccc(O)cc1)NC(=O)[C@H](CO)NC(=O)[C@H](Cc1c[nH]c2ccccc12)NC(=O)[C@H](Cc1cnc[nH]1)NC(=O)[C@@H]1CCC(=O)N1)C(=O)N[C@@H](CCCN=C(N)N)C(=O)N1CCC[C@H]1C(=O)NNC(N)=O
COC(=O)[C@@H]1CCCN1C(=O)c1c(OC)cc(=O)n2c1CCN(Cc1ccc3c(c1)OCCO3)CC2 1.1%
Cc1c(C(=O)NC(C)(C)CO)sc2ncnc(NCCN(C)C)c12 9.74%
COc1ccc(OC)c(-c2cc(Cl)c3c(c2)CC(CNC(=O)c2cccnc2SC)O3)c1 (configuration not stated) -7.16%
Cc1cccc(C(=O)N[C@H]2CC[C@@H](n3cc(C(=O)N4CCCC4)nn3)CC2)c1 1.56%
CC1=NS(=O)(=O)c2cc(Cl)ccc2N1
COc1ccc(Oc2ncc3nc(-c4ccc(Cl)cc4)c(=O)n(C[C@H]4CCCO4)c3n2)cc1 -4.75%
N#CCCn1c(=O)c(-c2cccs2)nc2cnc(Oc3ccccc3)nc21 9.84%
CN1N=C(C(=O)N2CCOc3ccc(CN4CCCC(C(=O)c5cccnc5)C4)cc3C2)CCC1=O (configuration not stated) 10.3%
COc1cccc(-c2cc(NCc3cnc(C)cn3)ncn2)c1 -2.13%
Cc1cccc(CN2Cc3cccc4c3[C@H](C=CC4)CC2=S)c1 0.327%
NC(=O)c1ccc[n+]([C@@H]2OC(COP(=O)([O-])OP(=O)(O)OCC3OC(n4cnc5c(N)ncnc54)C(O)C3O)C(O)C2O)c1 (some centres not stated) 8.29%
COc1cc2ncnc(Nc3cccc(Br)c3)c2cc1OC 0.988%
CN(C)CCC(c1ccc(Br)cc1)c1ccccn1 (configuration not stated)
CCCCNC(=O)[C@@H]1CC=C[C@@H]2CCN(Cc3ccc(OC)c(OC)c3)C(=O)[C@@H]21 -0.608%
Cc1ccnc2ncccc12 6.65%
O=C1CC[C@@H](C(=O)N2CSC[C@H]2C(=O)O)N1 ([pGlu]-[Thz]-OH) 3.7%
COc1ccccc1N1CCN(CCCNc2c(C)c(=O)n(C)c(=O)n2C)CC1
